From PubChem BioAssay (Tox21)
Inconclusive means that the source gave no clear call. Where the call is inconclusive, the potency comes from a doubtful curve fit.

What was measured:
[1] = qHTS RealTime-Glo MT Cell Viability Assay in HEK293 cells - 16 hour (AID 1224872); note: nearly all actives have a fitted effect of over 50% in size
Method in brief: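 Reads taken at 0, 8, 16, 24, 32 and 40 h from the same wells. HEK293 cells (600/well) carried RealTime-Glo reagents from seeding, with compound added after a 5 h settle at 37 C.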

[2] = qHTS RealTime-Glo MT Cell Viability Assay in HEK293 cells - 40 hour (AID 1224874); settings: RealTime-Glo luminescence; max response: active compounds read low; note: nearly all actives have a fitted effect of over 50% in size
Method in brief: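 Kinetic, non-lysing viability readout. Seed HEK293 (600/well) with reagent, incubate 5 h at 37 C/5% CO2, pin 23 nL compound in DMSO, incubate at 37 C, read luminescence at 0, 8, 16, 24, 32, 40 h.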

[3] = A CellTox Green Cytotoxicity Assay to monitor cytotoxicity in HepG2 cells - 24 hour (AID 1224878); note: nearly all actives have a fitted effect of over 45% in size
Method in brief: (§1)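 Cytotoxicity was tracked as dead-cell DNA fluorescence in HepG2 cells treated with test compounds at 37 C; each time-point value comes from one kinetic series spanning 0, 8, 16, 24, 32 and 40 h.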

[4] = A CellTox Green Cytotoxicity Assay to monitor cytotoxicity in HepG2 cells - 40 hour (AID 1224879); note: nearly all actives have a fitted effect of over 40% in size
Method in brief: as §1

[5] = A CellTox Green Cytotoxicity Assay to monitor cytotoxicity in HEK293 cells - 24 hour (AID 1224875); note: nearly all actives have a fitted effect of over 45% in size
Method in brief: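 Real-time, in one plate: 600 HEK293 cells/well with dead-cell DNA dye, pinned compound after 5 h, 37 C incubation over 40 h; viable cells give no appreciable fluorescence.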

Measured: Potency
Potency is the fitted concentration of half-maximal effect; tags give direction and shape of the fitted curve.

CCN(CC)CCCC(C)Nc1ccnc2cc(Cl)ccc12 (stereo not given)
inconclusive: [1] 11.7 µM [cytotoxic, partial curve, poor fit] | [2] 10.4 µM [cytotoxic, partial curve, poor fit] | [3] 11.7 µM [activator, partial curve, poor fit]

CN(C)C(=O)NC1(c2ccccc2)CCN(CC[C@@]2(c3ccc(F)c(F)c3)CN(C(=O)c3ccccc3)CCO2)CC1
inconclusive: [1] 40.5 µM [cytotoxic, partial curve] | [2] 45.5 µM [cytotoxic, partial curve] | [4] 51 µM [activator, single point]

COc1ccc2nc(NC(=O)Nc3ccccc3)sc2c1
inconclusive: [1] 4.77 µM [cytotoxic, full curve] | [5] 37.9 µM [activator, partial curve, poor fit] | [3] 9.52 µM [activator, partial curve, poor fit]

O=c1[nH]c2ccc(S(=O)CCN3CCC(Cc4ccc(F)cc4)CC3)cc2o1 (stereo not given)
inconclusive: [1] 30.9 µM [cytotoxic, partial curve] | [2] 24.5 µM [cytotoxic, partial curve] | [4] 43.6 µM [activator, partial curve]

CCn1nc(Cc2ccccc2)cc1C1CCN(C[C@H]2C[C@H](N(C)[C@@H](C(=O)O)C(C)C)C[C@@H]2c2cccc(F)c2)CC1
inconclusive: [1] 34.7 µM [cytotoxic, partial curve] | [2] 38.9 µM [cytotoxic, partial curve] | [4] 54.9 µM [activator, single point]
